# Laboratory results reported in the supplement of paper PMC12217912.
# Some of the results follow. The full chains were built here from the parent and the listed change. Values near 0.05 are background.
# B1: TEV protease; numbered along this chain (parent)
# chain: MGESLFKGPRDYNPISSSICHLTNESDGHTTSLYGIGFGPFIITNKHLFRRNNGTLVVQSLHGVFKVKDTTTLQQHLVDGRDMIIIRMPKDFPPFPQKLKFREPQREERICLVTTNFQTKSMSSMVSDTSCTFPSGDGIFWKHWIQTKDGQCGSPLVSTRDGFIVGIHSASNFTNTNNYFTSVPKNFMELLTNQEAQQWVSGWRLNADSVLWGGHKVFMVKPEEPFQPVKEATQL
# Variants of: B1
# Assay: raw area under fraction-flipped curve 0-4 h after induction (AUC4h, not background-subtracted), DNA-recorder readout of cleavage of the substrate (dimensionless); higher = more cleavage of the substrate by the protease variant
# Details: temperature: 34 °C; time window: 0-4 h after rhamnose induction
# Experimental: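 In vivo DNA recorder in E. coli TOP10(DE3) ΔrhaA at 34 °C. Each TEVp single-site mutant (parent TEVp 0) is paired with a single-site variant of the 7-mer TEVs (canonical ENLYFQ|S). The substrate sits between flexible linkers in a Bxb1-sfGFP-TEVs-SsrA fusion, so cleavage stabilises Bxb1 and speeds flipping of a recombination array, read by NGS. The value is the raw area under the fraction-flipped curve over 0-4 h after rhamnose induction (AUC4h), with ≥20 reads per time point. It is not background-subtracted; inactive controls average about 0.047.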
# 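Note: Bxb1 expression induced with 0.2% (w/v) L-rhamnose at OD600 near 0.5, cultures sampled hourly, flipped fraction per protease–substrate barcode pair counted by paired-end Illumina sequencing.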
Variant,area with substrate EALYFQS,area with substrate ECLYFQS,area with substrate EDLYFQS,area with substrate EELYFQS,area with substrate EGLYFQS,area with substrate EILYFQS,area with substrate EKLYFQS,area with substrate EMLYFQS,area with substrate EQLYFQS,area with substrate ERLYFQS,area with substrate ESLYFQS,area with substrate ETLYFQS,area with substrate EVLYFQS,area with substrate EHLYFQS,area with substrate ELLYFQS,area with substrate EPLYFQS,area with substrate EWLYFQS,area with substrate EYLYFQS,area with substrate EFLYFQS
MGESLFKGPRDYNPISSSICHLTNEVDGHTTSLYGIGFGPFIITNKHLFRRNNGTLVVQSLHGVFKVKDTTTLQQHLVDGRDMIIIRMPKDFPPFPQKLKFREPQREERICLVTTNFQTKSMSSMVSDTSCTFPSGDGIFWKHWIQTKDGQCGSPLVSTRDGFIVGIHSASNFTNTNNYFTSVPKNFMELLTNQEAQQWVSGWRLNADSVLWGGHKVFMVKPEEPFQPVKEATQL [S26V],0.0742,0.0539,0.097,0.088,0.0723,0.0986,0.064,0.0867,0.0851,0.08,0.0932,0.141,0.0541,,,,,,
MGESLFKGPRDYNPISSSICHLTNESDHHTTSLYGIGFGPFIITNKHLFRRNNGTLVVQSLHGVFKVKDTTTLQQHLVDGRDMIIIRMPKDFPPFPQKLKFREPQREERICLVTTNFQTKSMSSMVSDTSCTFPSGDGIFWKHWIQTKDGQCGSPLVSTRDGFIVGIHSASNFTNTNNYFTSVPKNFMELLTNQEAQQWVSGWRLNADSVLWGGHKVFMVKPEEPFQPVKEATQL [G28H],0.121,0.0912,0.114,0.108,,0.102,0.106,0.113,,0.0921,0.0886,0.0982,0.0853,0.1,0.0681,0.111,0.0891,0.0958,
MGESLFKGPRDYNPISSSICHLTNESDMHTTSLYGIGFGPFIITNKHLFRRNNGTLVVQSLHGVFKVKDTTTLQQHLVDGRDMIIIRMPKDFPPFPQKLKFREPQREERICLVTTNFQTKSMSSMVSDTSCTFPSGDGIFWKHWIQTKDGQCGSPLVSTRDGFIVGIHSASNFTNTNNYFTSVPKNFMELLTNQEAQQWVSGWRLNADSVLWGGHKVFMVKPEEPFQPVKEATQL [G28M],0.114,0.0911,0.139,,0.0965,0.0454,,,,0.103,0.0862,,0.0927,0.0969,,,0.086,,
MGESLFKGPRDYNPISSSICHLTNESVGHTTSLYGIGFGPFIITNKHLFRRNNGTLVVQSLHGVFKVKDTTTLQQHLVDGRDMIIIRMPKDFPPFPQKLKFREPQREERICLVTTNFQTKSMSSMVSDTSCTFPSGDGIFWKHWIQTKDGQCGSPLVSTRDGFIVGIHSASNFTNTNNYFTSVPKNFMELLTNQEAQQWVSGWRLNADSVLWGGHKVFMVKPEEPFQPVKEATQL [D27V],0.092,0.0815,0.106,,0.0853,0.0709,0.101,0.126,0.0908,0.0906,0.0791,0.111,0.0865,,0.095,0.0878,0.0855,,0.0796
MGESLFKGPRDYNPISSSQCHLTNESDGHTTSLYGIGFGPFIITNKHLFRRNNGTLVVQSLHGVFKVKDTTTLQQHLVDGRDMIIIRMPKDFPPFPQKLKFREPQREERICLVTTNFQTKSMSSMVSDTSCTFPSGDGIFWKHWIQTKDGQCGSPLVSTRDGFIVGIHSASNFTNTNNYFTSVPKNFMELLTNQEAQQWVSGWRLNADSVLWGGHKVFMVKPEEPFQPVKEATQL [I19Q],0.136,0.11,0.127,0.106,0.0896,0.0994,0.0705,0.0937,0.125,0.101,0.108,0.117,,0.109,,,,,0.0987
MGESLFKGPRDYNPISSSTCHLTNESDGHTTSLYGIGFGPFIITNKHLFRRNNGTLVVQSLHGVFKVKDTTTLQQHLVDGRDMIIIRMPKDFPPFPQKLKFREPQREERICLVTTNFQTKSMSSMVSDTSCTFPSGDGIFWKHWIQTKDGQCGSPLVSTRDGFIVGIHSASNFTNTNNYFTSVPKNFMELLTNQEAQQWVSGWRLNADSVLWGGHKVFMVKPEEPFQPVKEATQL [I19T],0.103,0.0999,0.108,,0.114,0.0849,0.11,,0.12,0.0941,0.0868,,0.0644,,,,,0.0999,
MGESLFKGPRDYNPISSSICHLTNASDGHTTSLYGIGFGPFIITNKHLFRRNNGTLVVQSLHGVFKVKDTTTLQQHLVDGRDMIIIRMPKDFPPFPQKLKFREPQREERICLVTTNFQTKSMSSMVSDTSCTFPSGDGIFWKHWIQTKDGQCGSPLVSTRDGFIVGIHSASNFTNTNNYFTSVPKNFMELLTNQEAQQWVSGWRLNADSVLWGGHKVFMVKPEEPFQPVKEATQL [E25A],0.104,0.127,0.123,0.142,0.141,,0.0775,0.111,0.128,0.079,0.113,0.0993,0.111,0.116,0.0965,,0.0802,,0.0905
MGESLFKGPRDYNPISSVICHLTNESDGHTTSLYGIGFGPFIITNKHLFRRNNGTLVVQSLHGVFKVKDTTTLQQHLVDGRDMIIIRMPKDFPPFPQKLKFREPQREERICLVTTNFQTKSMSSMVSDTSCTFPSGDGIFWKHWIQTKDGQCGSPLVSTRDGFIVGIHSASNFTNTNNYFTSVPKNFMELLTNQEAQQWVSGWRLNADSVLWGGHKVFMVKPEEPFQPVKEATQL [S18V],0.127,0.0882,0.0958,0.118,0.0864,0.0856,0.125,,0.115,0.0782,0.101,0.11,0.0847,,0.0948,0.109,0.0994,0.0897,
MGESLFKGPRDYNPISSYICHLTNESDGHTTSLYGIGFGPFIITNKHLFRRNNGTLVVQSLHGVFKVKDTTTLQQHLVDGRDMIIIRMPKDFPPFPQKLKFREPQREERICLVTTNFQTKSMSSMVSDTSCTFPSGDGIFWKHWIQTKDGQCGSPLVSTRDGFIVGIHSASNFTNTNNYFTSVPKNFMELLTNQEAQQWVSGWRLNADSVLWGGHKVFMVKPEEPFQPVKEATQL [S18Y],0.0905,0.101,0.0664,,,0.0864,,0.0838,0.103,0.0884,0.0943,0.108,0.104,,0.0963,0.105,0.093,,
MGESLFKGPRDYNPISSSICHLMNESDGHTTSLYGIGFGPFIITNKHLFRRNNGTLVVQSLHGVFKVKDTTTLQQHLVDGRDMIIIRMPKDFPPFPQKLKFREPQREERICLVTTNFQTKSMSSMVSDTSCTFPSGDGIFWKHWIQTKDGQCGSPLVSTRDGFIVGIHSASNFTNTNNYFTSVPKNFMELLTNQEAQQWVSGWRLNADSVLWGGHKVFMVKPEEPFQPVKEATQL [T23M],0.103,0.0931,0.13,0.115,0.0886,0.0722,0.0968,0.141,0.104,0.1,0.101,,0.0632,0.113,0.0671,0.096,0.0841,0.124,0.0992
MGESLFKGPRDYNPISSSICHLQNESDGHTTSLYGIGFGPFIITNKHLFRRNNGTLVVQSLHGVFKVKDTTTLQQHLVDGRDMIIIRMPKDFPPFPQKLKFREPQREERICLVTTNFQTKSMSSMVSDTSCTFPSGDGIFWKHWIQTKDGQCGSPLVSTRDGFIVGIHSASNFTNTNNYFTSVPKNFMELLTNQEAQQWVSGWRLNADSVLWGGHKVFMVKPEEPFQPVKEATQL [T23Q],0.11,0.103,0.102,0.157,0.0933,0.0716,0.107,0.119,,0.12,0.093,0.0955,0.113,,0.0929,0.115,,0.0915,0.118
MGESLFKGPRDYNPISSSIAHLTNESDGHTTSLYGIGFGPFIITNKHLFRRNNGTLVVQSLHGVFKVKDTTTLQQHLVDGRDMIIIRMPKDFPPFPQKLKFREPQREERICLVTTNFQTKSMSSMVSDTSCTFPSGDGIFWKHWIQTKDGQCGSPLVSTRDGFIVGIHSASNFTNTNNYFTSVPKNFMELLTNQEAQQWVSGWRLNADSVLWGGHKVFMVKPEEPFQPVKEATQL [C20A],0.138,0.111,0.156,0.129,0.109,0.113,,,,0.116,0.0928,,0.121,0.118,0.104,0.11,0.0714,,
MGESLFKGPRDYNPISSSIEHLTNESDGHTTSLYGIGFGPFIITNKHLFRRNNGTLVVQSLHGVFKVKDTTTLQQHLVDGRDMIIIRMPKDFPPFPQKLKFREPQREERICLVTTNFQTKSMSSMVSDTSCTFPSGDGIFWKHWIQTKDGQCGSPLVSTRDGFIVGIHSASNFTNTNNYFTSVPKNFMELLTNQEAQQWVSGWRLNADSVLWGGHKVFMVKPEEPFQPVKEATQL [C20E],0.0759,0.0417,0.039,,0.037,,0.04,0.0413,,0.0394,0.055,,0.0468,0.0325,,0.049,0.0432,0.0483,0.0278
MGESLFKGPRDYNPISSSICHATNESDGHTTSLYGIGFGPFIITNKHLFRRNNGTLVVQSLHGVFKVKDTTTLQQHLVDGRDMIIIRMPKDFPPFPQKLKFREPQREERICLVTTNFQTKSMSSMVSDTSCTFPSGDGIFWKHWIQTKDGQCGSPLVSTRDGFIVGIHSASNFTNTNNYFTSVPKNFMELLTNQEAQQWVSGWRLNADSVLWGGHKVFMVKPEEPFQPVKEATQL [L22A],0.0664,0.0638,0.0763,0.0722,0.0563,0.0589,0.0685,0.0725,0.0797,0.0652,0.0778,0.067,0.0632,0.0684,0.0542,0.0883,0.0655,0.071,0.0664
MGESLFKGPRDYNPISSSICSLTNESDGHTTSLYGIGFGPFIITNKHLFRRNNGTLVVQSLHGVFKVKDTTTLQQHLVDGRDMIIIRMPKDFPPFPQKLKFREPQREERICLVTTNFQTKSMSSMVSDTSCTFPSGDGIFWKHWIQTKDGQCGSPLVSTRDGFIVGIHSASNFTNTNNYFTSVPKNFMELLTNQEAQQWVSGWRLNADSVLWGGHKVFMVKPEEPFQPVKEATQL [H21S],0.11,0.0849,0.125,0.111,0.0686,0.0922,0.0795,0.0944,0.0905,0.091,0.113,0.116,0.09,0.102,0.0751,0.122,0.0894,0.146,0.0758
MGESLFKGPRDYNPISSSICKLTNESDGHTTSLYGIGFGPFIITNKHLFRRNNGTLVVQSLHGVFKVKDTTTLQQHLVDGRDMIIIRMPKDFPPFPQKLKFREPQREERICLVTTNFQTKSMSSMVSDTSCTFPSGDGIFWKHWIQTKDGQCGSPLVSTRDGFIVGIHSASNFTNTNNYFTSVPKNFMELLTNQEAQQWVSGWRLNADSVLWGGHKVFMVKPEEPFQPVKEATQL [H21K],0.113,0.113,0.164,0.089,0.0869,0.0856,0.0889,0.0993,,0.0933,0.119,,0.0948,0.113,0.0883,0.128,0.121,0.0795,0.0946
MGESLFKGPRDYNPISSSICHLTKESDGHTTSLYGIGFGPFIITNKHLFRRNNGTLVVQSLHGVFKVKDTTTLQQHLVDGRDMIIIRMPKDFPPFPQKLKFREPQREERICLVTTNFQTKSMSSMVSDTSCTFPSGDGIFWKHWIQTKDGQCGSPLVSTRDGFIVGIHSASNFTNTNNYFTSVPKNFMELLTNQEAQQWVSGWRLNADSVLWGGHKVFMVKPEEPFQPVKEATQL [N24K],0.121,0.0707,0.0975,0.115,0.0669,0.0941,0.0838,0.0826,0.0891,0.0744,0.0871,0.108,0.067,0.0999,0.0718,0.0981,0.0633,0.11,0.0557
